Experimental data as given in PubChem BioAssay AID1346428 (National Center for Advancing Translational Sciences (NCATS), 2018).
“And” between values parts separate entries of the source, which are not always exact repeats. Equal values may be shown once. Among all 48,000 compounds or so, about 1,200 (2.5%) were called active. Inconclusive results (about 2%) are left out.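 How the source made its calls: active means activation of at least 60% and not above a set upper limit (about 1 call in 100 departs from these limits); inconclusive means activation of 40% to 60%, or above that upper limit; inactive means activation under 40%.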 Some of the results follow.

target: Probable G-protein coupled receptor 32 (Homo sapiens) (UniProt O75388); experiment: qHTS for Agonists of Human Resolvin D1 Receptor DRV1; settings: CHO-K1 GPR32 beta-arrestin PathHunter luminescence, 90 min; at 76.9 µM; active compounds read high; zero percent set by DMSO-only wells; further: 0% is about no effect
Sequence of UniProt O75388 (O75388 whole entry, looked up): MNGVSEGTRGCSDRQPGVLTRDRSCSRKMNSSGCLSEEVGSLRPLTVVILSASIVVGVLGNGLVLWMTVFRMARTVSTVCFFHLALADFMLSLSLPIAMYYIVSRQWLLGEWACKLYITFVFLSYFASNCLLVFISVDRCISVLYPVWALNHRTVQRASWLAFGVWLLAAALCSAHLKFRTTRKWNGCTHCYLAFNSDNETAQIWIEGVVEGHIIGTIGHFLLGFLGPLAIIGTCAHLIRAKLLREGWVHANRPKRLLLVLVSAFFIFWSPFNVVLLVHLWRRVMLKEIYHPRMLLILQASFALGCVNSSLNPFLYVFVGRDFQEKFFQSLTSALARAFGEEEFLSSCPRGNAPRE
Outline: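 Engineered CHO-K1 line co-expressing GPR32-ProLink and EA-beta-arrestin. Compound treatment lasted 90 min at 37 °C. Luminescence was recorded after 1 h with substrate at ambient temperature, relative to DMSO basal wells.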

activation, inactive:
CCN1CCC(N(Cc2ccc3c(c2)OCO3)C(=O)Nc2ccccc2OC)CC1 -8.9%
CCOC(=O)c1c(C)[nH]c(CCC(=O)NCc2ccccc2C)c1C -1.66%
CN(C)c1ccc(NC(=O)CSC2=Nc3ccccc3C3=NC(CC(=O)NCc4ccccc4)C(=O)N23)cc1 (stereo not drawn) -4.2%
CCOc1ccccc1CN(CCc1ccc2c(c1)OCO2)Cc1cccc(OC)c1OC 35.3%
CC1CN(C(=O)N2CCC(C(=O)NC3CCCCCC3)CC2)c2ccccc2O1 (stereo not drawn) -2.08%
COc1cc(NC(=O)C(CCS(C)(=O)=O)N2Cc3ccccc3C2=O)cc(OC)c1OC (stereo not drawn) -1.13%
CC1=C(C(=O)NCc2ccc(Cl)cc2)C2(CCCCCC2)OC1=O -25.2%
COc1cccc(CSc2nc3n(n2)C(c2cccnc2)C(C(=O)Nc2ccccc2C)=C(C)N3)c1 (stereo not drawn) 1.83%
NCCCCN=C(N)N 1.82%
Cc1ccc(N2CC(NC(=O)CCc3ccccc3)CC2=O)cc1 (stereo not drawn) -4.3%
COc1ccccc1C(=O)NC(=O)Nc1ccc(-n2nc(C(F)(F)F)cc2C(F)(F)F)cc1 -3.89%
COc1ccccc1C(=O)Nc1ccc(C(=O)OCc2cc(=O)n3ccsc3n2)cc1 -5.74%
CCOC(=O)c1sc(NC(=O)c2cc3nc(-c4ccc(Br)cc4)cc(C(F)(F)F)n3n2)c(C(=O)OCC)c1C -9.77%
Cc1nc2cc(C(=O)O)ccc2n1-c1ccc(C(C)C)cc1 20.6%
Cc1cccc(N2CCN(C(=O)Cn3c(=O)c4cccn4c4ccc(F)cc43)CC2)c1C -16.5%
CCOC(=O)CCn1nc(C)c2c(C)n(-c3ccccc3)nc2c1=O -9.95%
CC(C)CC(=O)Nc1ccc(Cl)c(-c2nc3ccccc3[nH]2)c1 31.8%
Cc1nc2nc(SCC(=O)NCc3ccccc3)nn2c(C)c1Cc1ccccc1 -13.6%
Cc1ccc(NC(=O)c2ccc(Br)cc2)c(C(=O)c2ccccc2)c1 -2.81%
N#Cc1ccc(NS(=O)(=O)c2ccc(-c3cnc(C4CC4)o3)cc2)cc1 7.98%
O=C(O)[C@H]1NCCC[C@H]1C(=O)O -5.26%
COc1ccc(OC)c(CNC(=O)CN2C(=O)CCn3nc(-c4cn(C)c5ccccc45)cc32)c1 -9.2%
CC(=O)Oc1ccccc1C(=O)O -3.61% and 3.12%
CCOC(=O)c1ccccc1NC(=O)N(Cc1ccco1)C1CCN(C(C)=O)CC1 7.64%
CNC(=O)c1ccc(Nc2nnc(-c3ccc(C)c(S(=O)(=O)N4CCOCC4)c3)c3ccccc23)cc1 25%
CCOc1nc(NC(=O)NS(=O)(=O)Oc2ccccc2Cl)nc(-c2ccccc2)n1 23.6%
COc1cc2nc(NCC(C)c3ccccc3)n3nc(-c4ccccc4)nc3c2cc1OC (stereo not drawn) 4.41%
Cc1ccc(C)n1-c1nnc(N2CCCC(C(=O)NCc3ccccc3)C2)s1 (stereo not drawn) -26.2%
Cc1ccc(NC(=O)CCc2c(C)nc3nc(C)nn3c2C)c(Cl)c1 24.2%
CCc1cccc(NC(=O)CN2C=NS(=O)(=O)c3ccccc32)c1 8.07%
COc1ccccc1-c1cc(C(F)(F)F)nc(S(=O)(=O)CCCC(=O)Nc2ccc(F)c(Cl)c2)n1 -2.52%
COc1ccc(C(=O)N2CCC(c3c[nH]c4ccccc34)(c3c[nH]c4ccccc34)CC2)cc1 -0.997%
COc1ccccc1CNC(=O)c1oc2c(c1C)-c1nn(Cc3ccc(Cl)cc3)cc1CC2 -9.08%
CN(C)c1ccc(CNC(=O)C2CCN(S(=O)(=O)c3cn(C)cn3)CC2)cc1 -9.22%
COc1ccc(NC(=O)c2cc(C3CC3)nc3c2c(C)nn3-c2ccc(C)cc2)cc1OC -1.48%
Cc1c(NS(C)(=O)=O)cccc1-c1nc2ccccc2s1 20%
COc1ccc(NC(=O)c2sc3nc(-c4cc5cccc(OC)c5oc4=O)[nH]c(=O)c3c2C)cc1 1.27%
Cc1ccc(C)c(CN2C(=O)c3ccccc3S(=O)c3ccc(C(=O)NCCc4ccc(Cl)cc4)cc32)c1 (stereo not drawn) -3.67%
COc1cccc(CNC(=O)NCc2noc3ccc(C)cc23)c1 -3.87%
CCOc1ccc(N(CC)S(=O)(=O)N2CCCC(C(=O)NCc3ccc(SC)cc3)C2)cc1 (stereo not drawn) -19.5%
Cc1ccc(NC(=O)CN2C=NS(=O)(=O)c3ccccc32)c(C)c1 1.97%
COc1ccc(NC(=O)CN2C(=O)COc3ccc(S(=O)(=O)N4CCOCC4)cc32)cc1Cl -21%
COc1ccc(NC(=O)Nc2nnc(N3CCCCCC3)s2)c(OC)c1 -6.85%
COc1ccc(N2CCN(C(=O)CCS(=O)(=O)c3cc(Br)cc4c3N(C(=O)C3CC3)CC4)CC2)cc1 -1.57%
Cc1ccc(N2CC(c3nnc(NC(=O)c4ccco4)s3)CC2=O)cc1C (stereo not drawn) -13.6%
O=C(NC1CCCC1)c1ccc(CSc2nc3ccncc3n2Cc2ccc(F)cc2)cc1 -3.42%
COc1ccc(-n2cc(C(=O)NC(C)c3ccccc3)c3ccccc3c2=O)cc1 (stereo not drawn) -19.9%
CCCCC[C@H](O)C=C[C@H]1[C@H](O)CC(=O)[C@H]1CC=CCCCC(=O)O 2.74%
Cc1ccc(NC(=O)Cn2cc(S(=O)(=O)N3CCCC3)c(S(=O)(=O)N3CCCC3)c2)cc1C -17.5%
CCN1CCN(c2cc(C)c3cc(NC(=O)/C=C/c4cccc(Cl)c4)ccc3n2)CC1 21.7%
CCOc1ccc(NC(=O)c2ccc(-c3cccc(Cl)c3C)o2)cc1 -4.77%
CCOC(=O)c1cnc2c(ccc3ccccc32)c1Nc1ccc(OC)c(OC)c1 -62.4%
O=c1c2cc3c(nc2ncn1Cc1ccccc1F)CCCC3 -6.05%
CCOc1ccc(Cn2c(CNS(=O)(=O)c3ccc([N+](=O)[O-])cc3)nc3cccnc32)cc1 -6.39%
COCCn1ccc2c(OCC(=O)NCc3ccc(F)cc3)cccc2c1=O 13.2%
COc1ccc(C(=O)NCCSc2c(C)[nH]c3ccccc23)cc1 -4.47%
Cc1ccc(NC(=O)Nc2nnc(SCC(=O)N3CCC(C)CC3)s2)cc1 44.9%
COc1ccc(NC(=O)CCCSc2nc(-c3ccco3)cc(C(F)(F)F)n2)cc1 0.203%
Cc1cc2c(cc1S(=O)(=O)NCc1ccccc1)OCC(=O)N2 7.86%
Cc1ccc(NC(=O)c2ccc(COc3ccccc3Cl)o2)cc1 -16.8%
COc1ccccc1C(=O)Nc1c(C(=O)N2CCN(c3ccccc3F)CC2)oc2ccccc12 -16.2%
CN(C)c1cccc(C(=O)Nc2nc3ccc(S(=O)(=O)NC(C)(C)C)cc3s2)c1 11.5%
Cc1ccc(CNC(=O)c2ccc3c(c2)NC(=O)C(CS(=O)(=O)Cc2ccc(F)cc2)N3)cc1 (stereo not drawn) -0.495%
O=C(c1ccccc1)c1ccc2nc(N3CCN(c4ccccc4)CC3)c3nncn3c2c1 -10.3%
Cc1nc2ccc(S(=O)(=O)CCC(=O)Nc3ccc(C(C)C)cc3)cc2s1 -16.1%
CC(C)(C)c1ccc(C(=O)Nc2ccc(C(=O)OCc3cc(=O)n4ccsc4n3)cc2)cc1 17.5%
CCC1CCCCN1CCCNC(=O)c1cn(CC)c2ccc(S(=O)(=O)N(C)C3CCCCC3)cc2c1=O (stereo not drawn) -4.33%
CC1=C(/C=C/C(C)=C/C=C/C(C)=C/C(=O)O)C(C)(C)CCC1 9.01% and -7.02%
Cc1cc(C)cc(Nc2nc3ccccc3nc2-n2nc(C)cc2C)c1 -24.1%
CCOC(=O)N1CCc2c(sc3c2c(=O)n(Cc2ccccc2)c(=O)n3CC(=O)Nc2cccc(C)c2)C1 -12.8%
COC(=O)c1sc(-c2ccccc2)cc1NC(=O)Nc1ccccc1Cl -27.2%
O=C(/C=C/c1ccc(O)c(O)c1)O[C@@H]1C[C@@](OC(=O)/C=C/c2ccc(O)c(O)c2)(C(=O)O)C[C@@H](O)[C@@H]1O 16.4%
Cc1ccc(CNC(=O)C2(c3cccs3)CCOCC2)cc1 -24.7%
COc1ccc(-c2cn3c(n2)sc2cc(C(=O)Nc4c(C)cccc4C)ccc23)cc1 7.42%
CCCCC(=O)Nc1cc(-c2nc3cccnc3s2)ccc1C -8.22%
CCc1ccc(NC(=O)c2cc3c(COC(C)=O)cnc(C)c3oc2=O)cc1 -4.36%
CCOc1ccc(NC(=O)CSc2ncnc3c2sc2ccccc23)cc1 -3.97%
CN(C)S(=O)(=O)c1ccc(C(=O)Nc2c(C(=O)Nc3ccc(F)cc3)oc3ccccc23)cc1 -2.61%
COc1ccc(C(=O)n2nc(-c3ccc(Cl)cc3)nc2NCc2ccco2)cc1 1.74%
O=C(c1ccc2c(c1)N(Cc1ccc(Cl)cc1)C(=O)c1ccccc1S2(=O)=O)N1CCC(Cc2ccccc2)CC1 9.5%
Cc1ccc(S(=O)(=O)Nc2ccc3[nH]c(=O)sc3c2)cc1C 2.94%
O=C(Nc1cc2c(cc1C(=O)c1ccc(Br)cc1)OCCO2)c1ccc(Cl)cc1 2.97%
CCOc1ccc(NC(=O)CSC2=Nc3ccccc3C3=NC(CC(=O)NCc4ccccc4OC)C(=O)N23)cc1 (stereo not drawn) -27.4%
